For assay [1], the target named is 53BP1 expressed in 293T cells (human) (UniProt Q12888). Briefly: co-IP; TIRR or its mutants and 53BP1 expressed in 293T cells; lysis in NETN-300, streptavidin sepharose beads 2 h 4 °C, NETN-100 washes; western blot. (In western blotting, separated proteins are transferred to a membrane and probed.)
Assay [2] addresses NUDT16 (co-IP) (UniProt Q96DE0). Nature of the assay: co-IP; TIRR with NUDT16 (Supplementary Fig. 8); cells and tags not shown.
The target of assay [3] is NUDT16 (in-vitro pull-down assays) (UniProt Q96DE0). Briefly: pull-down; in vitro pull-down screening of TIRR dimer-interface mutants, TIRR homodimer or TIRR/NUDT16 heterodimer (Supplementary Fig. 9a, e, f); who was held not shown; both purified.
Assay [4] concerns the target 53BP1 tandem Tudor domain (residues 1459-1634) (human) (UniProt Q12888). Briefly: AUC; sedimentation velocity, 60,000 rpm, 20 °C, 10 mM Tris-HCl pH 8.0, 200 mM NaCl, 3 mM DTT; TIRR 53 μM, TTD 35 μM, mixture 20 μM TIRR with 20 μM TTD; both purified.

Sequences of proteins named here, by UniProt entry; tags and fusion partners are left off. A change or cut given only in a name is not applied to a line headed by its entry.
UniProt Q12888: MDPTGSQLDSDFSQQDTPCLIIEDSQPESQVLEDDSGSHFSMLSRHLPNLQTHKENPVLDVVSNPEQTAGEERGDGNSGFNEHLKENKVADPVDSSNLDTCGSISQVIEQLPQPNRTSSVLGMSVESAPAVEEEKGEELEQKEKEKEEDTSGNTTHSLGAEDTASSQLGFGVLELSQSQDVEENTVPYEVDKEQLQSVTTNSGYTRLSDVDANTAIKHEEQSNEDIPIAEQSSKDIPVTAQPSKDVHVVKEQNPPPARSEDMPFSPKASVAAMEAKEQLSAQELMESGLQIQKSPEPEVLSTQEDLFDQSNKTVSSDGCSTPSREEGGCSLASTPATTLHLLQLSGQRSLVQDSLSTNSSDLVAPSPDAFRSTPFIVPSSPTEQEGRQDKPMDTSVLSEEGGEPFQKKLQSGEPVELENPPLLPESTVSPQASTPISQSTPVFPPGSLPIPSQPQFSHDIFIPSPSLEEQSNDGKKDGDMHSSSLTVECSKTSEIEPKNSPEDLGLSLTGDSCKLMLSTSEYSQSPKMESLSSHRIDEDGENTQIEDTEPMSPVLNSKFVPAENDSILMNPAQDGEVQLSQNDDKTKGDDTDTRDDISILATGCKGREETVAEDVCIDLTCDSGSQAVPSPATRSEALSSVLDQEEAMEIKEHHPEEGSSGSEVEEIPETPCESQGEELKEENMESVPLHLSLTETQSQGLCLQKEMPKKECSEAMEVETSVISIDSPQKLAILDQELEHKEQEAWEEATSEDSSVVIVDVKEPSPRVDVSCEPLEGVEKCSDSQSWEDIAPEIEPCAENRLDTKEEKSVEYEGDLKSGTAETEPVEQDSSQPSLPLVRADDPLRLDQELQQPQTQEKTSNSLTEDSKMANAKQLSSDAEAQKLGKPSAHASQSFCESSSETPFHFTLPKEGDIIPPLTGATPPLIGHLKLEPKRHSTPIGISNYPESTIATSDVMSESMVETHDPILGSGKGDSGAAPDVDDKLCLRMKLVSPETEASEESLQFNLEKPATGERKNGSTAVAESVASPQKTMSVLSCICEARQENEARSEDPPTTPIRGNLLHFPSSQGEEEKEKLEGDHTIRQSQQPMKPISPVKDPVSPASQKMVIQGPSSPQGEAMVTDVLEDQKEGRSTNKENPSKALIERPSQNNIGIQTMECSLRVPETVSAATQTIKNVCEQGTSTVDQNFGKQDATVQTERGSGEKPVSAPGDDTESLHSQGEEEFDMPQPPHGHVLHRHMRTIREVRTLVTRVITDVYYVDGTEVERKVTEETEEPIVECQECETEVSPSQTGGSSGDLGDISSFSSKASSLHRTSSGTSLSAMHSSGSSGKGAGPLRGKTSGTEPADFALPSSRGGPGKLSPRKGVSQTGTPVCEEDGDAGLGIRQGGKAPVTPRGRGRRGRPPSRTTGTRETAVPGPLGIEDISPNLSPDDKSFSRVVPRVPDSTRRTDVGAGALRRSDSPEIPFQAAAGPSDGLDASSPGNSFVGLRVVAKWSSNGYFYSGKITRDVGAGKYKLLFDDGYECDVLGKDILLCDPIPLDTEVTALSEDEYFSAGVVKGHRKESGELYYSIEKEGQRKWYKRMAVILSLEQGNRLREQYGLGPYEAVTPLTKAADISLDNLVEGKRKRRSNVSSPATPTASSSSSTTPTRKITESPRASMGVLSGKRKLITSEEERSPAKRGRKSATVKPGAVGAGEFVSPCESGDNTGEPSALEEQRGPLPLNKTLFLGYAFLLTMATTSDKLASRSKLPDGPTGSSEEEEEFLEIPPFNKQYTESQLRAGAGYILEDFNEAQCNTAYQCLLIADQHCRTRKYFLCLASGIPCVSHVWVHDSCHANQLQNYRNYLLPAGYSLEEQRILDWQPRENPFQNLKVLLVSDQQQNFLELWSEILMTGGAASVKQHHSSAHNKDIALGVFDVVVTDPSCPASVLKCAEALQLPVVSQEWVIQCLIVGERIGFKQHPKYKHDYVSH
UniProt Q96DE0: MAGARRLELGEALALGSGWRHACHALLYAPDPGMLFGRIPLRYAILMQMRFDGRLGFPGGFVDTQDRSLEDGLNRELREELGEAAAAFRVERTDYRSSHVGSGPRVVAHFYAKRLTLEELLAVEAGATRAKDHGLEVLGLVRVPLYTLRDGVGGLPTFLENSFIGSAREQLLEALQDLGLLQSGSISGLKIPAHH
UniProt Q9BRJ7: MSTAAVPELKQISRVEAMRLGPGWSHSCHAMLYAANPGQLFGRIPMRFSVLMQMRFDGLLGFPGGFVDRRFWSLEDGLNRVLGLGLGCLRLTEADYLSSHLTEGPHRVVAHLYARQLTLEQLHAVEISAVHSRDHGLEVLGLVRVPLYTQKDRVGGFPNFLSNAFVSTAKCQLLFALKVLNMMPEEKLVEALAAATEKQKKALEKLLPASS

These are yes or no findings as the source states them, for the method shown. For part of these data: Binding seen in cells or lysates may run through a third protein. Some entries that bind do so weakly or less than the wild type.

As to “TIRR expressed in 293T cells (from UniProt Q9BRJ7 1-211)”, the binding result in assay [1] and in assay [2] was “binds” throughout.

“TIRR R107A expressed in 293T cells (from UniProt Q9BRJ7 1-211)”: the binding entry in assay [1] was “no binding”.

For “His-TIRR (from UniProt Q9BRJ7 6-211) (domain or fragment)”, in assay [3], the binding result is “binds”.

Take “TIRR H106A expressed in 293T cells (from UniProt Q9BRJ7 1-211)”: the binding result in assay [1] is “no binding”.

Regarding “53BP1 tandem Tudor domain (residues 1459-1634) (from UniProt Q12888 1459-1634) (domain or fragment)”, in assay [4], the binding result is recorded as “no binding (tested: 35 μM)”.

(Values after publication PMC6043480.)
